± gives the standard deviation of the averaged measurements. The list shows a part of the results.

44 sequences from the supplement of paper PMC11417369 can be followed below.

The experiment relates to PfAP2-I AP2 domain 3 (GST-tagged). Description: gcPBM binding intensity (ln(normalized median fluorescence intensity)); higher = stronger DNA binding. In short, it runs like this:
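The binding buffer was 1× PBS containing 1% milk, 0.2 mg/ml BSA, 0.5% salmon testes DNA and 0.03% Triton X-100. In it, GST-tagged P. falciparum DNA-binding domains expressed in E. coli were applied for 1 h to an Agilent 4 × 180k array of primer-extended double-stranded 36-bp intergenic genomic probes plus negative controls. Binding intensity, read with Alexa488 anti-GST antibody and a 488 nm scan, is the highest Masliner-normalised natural-log median intensity across replicate spots of either probe orientation.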
As for “TATTTTTTTTTTTAATGTACAAACAAATTATGTTGG [XGTACX_site2873]”, the “gcPBM binding intensity (ln)” value is 7.71 ± 0.45.

As to “ATTTTTTTTATGAGGTGTACTCATATAATAACTACA [XGTACX_site5074]”, the “gcPBM binding intensity (ln)” value stood at 8.25 ± 0.042.

Consider “TTTTCTAAAGTAAGTTAAGATATGCAAAAAAAAGAA [GTGCAC_negctrl_site242]”, for which the “gcPBM binding intensity (ln)” value was found to be 9.06 ± 0.25.

Consider “AATAAAAATTGGTAGGCACACATGGAACTATTAAAA [CACACA_site1257]”, for which the “gcPBM binding intensity (ln)” value is 8.07 ± 0.79.

As for “TATAAAAGGTAAGAGTGTACAAGTAAAAAATTTTTA [XGTACX_site771]”, the “gcPBM binding intensity (ln)” value was determined as 7.86 ± 0.61.

As to “ATGAACTATATTAAATCACACATTATCATTTTATAT [CACACA_site4989]”, the “gcPBM binding intensity (ln)” value was determined as 7.71 ± 0.55.

In the case of “TTTTTATAAGCATAAAGTACAAATATTTTTTAGTTG [XGTACX_site4140]”, the “gcPBM binding intensity (ln)” value is 7.72 ± 0.21.

Turning to “TAAATCCGTTTGATGGGTACATACATACATACATAT [XGTACX_site8889]”, the “gcPBM binding intensity (ln)” value was determined as 7.75 ± 0.52.

As to “AACACCCATGGACACACACACATATATATATATATA [CACACA_site5809]”, the “gcPBM binding intensity (ln)” value came to 9.31 ± 0.23.

Turning to “ACAATAAAATATGGCACACATATATATATATATTTA [CACACA_site3]”, the “gcPBM binding intensity (ln)” value was 8.79 ± 0.18.

Regarding “ATTTATTTTAGTAAAGCACACGTGTAAAATATATCT [CACACA_site4820]”, the “gcPBM binding intensity (ln)” value was found to be 9.455 ± 0.092.

For “TTATTACATATAAAGGAAAATAGCATCTAGATTAAA [XGTACX_negctrl_site435]”, the “gcPBM binding intensity (ln)” value is 7.54 ± 0.76.

For “TCTTTTTTGAACTAGCGTACATGAAAATATTTATAG [XGTACX_site7359]”, the “gcPBM binding intensity (ln)” value stood at 7.83 ± 0.28.

Turning to “AAAAAAAAAAAAAAAAAATACATATACATTTGTGCA [CACACA_negctrl_site1431]”, the “gcPBM binding intensity (ln)” value was determined as 9.07 ± 0.35.

For the sequence “TTTTTATTTATATATAAGGAAAATGCGGTATATATT [CACACA_negctrl_site1770]”, the “gcPBM binding intensity (ln)” value turned out to be 8.12 ± 0.7.

On to “ATTTTAAATATGGAATGTACTTAAAAAAAATTTCAT [XGTACX_site5058]”, for which the “gcPBM binding intensity (ln)” value came out at 7.78 ± 0.56.

For the sequence “ATTTCTTATTAAATTACACACAAAGTAAATAAATCT [CACACA_site3924]”, the “gcPBM binding intensity (ln)” value is 7.67 ± 0.46.

Consider “AATTAAATATTATAAACACACATATAGATTATTTTT [CACACA_site6538]”, for which the “gcPBM binding intensity (ln)” value was determined as 7.49 ± 0.44.

In the case of “AAATACATAACTTAAAATTTGTTCATATCTATACAT [TGCATGCA_negctrl_site249]”, the “gcPBM binding intensity (ln)” value is 7.56 ± 0.71.

For the sequence “TATAATAATATGGATTGTACATATATATTTAATTAA [XGTACX_site4327]”, the “gcPBM binding intensity (ln)” value was 7.57 ± 0.45.

As to “TTTTCCTTTTTTTTTACATGCAGATATAGAAAGGTA [TGCATGCA_site106]”, the “gcPBM binding intensity (ln)” value is 7.96 ± 0.49.

For the sequence “TTGTTTTGGATTATCACACATATAATATATACTCAT [CACACA_site4780]”, the “gcPBM binding intensity (ln)” value is 7.82 ± 0.68.

As for “GTAATTTTTTTCTATACACACATATCTATAATATAT [CACACA_site7284]”, the “gcPBM binding intensity (ln)” value came out at 8.09 ± 0.6.

As to “TACTTATAATTTCAATGTACATATATATAATATCAT [XGTACX_site2424]”, the “gcPBM binding intensity (ln)” value came out at 7.72 ± 0.34.

On to “TATCACATATTATGATGTACAAGGTTTCTGACTAAT [XGTACX_site2763]”, for which the “gcPBM binding intensity (ln)” value is 7.63 ± 0.51.

Regarding “TTTTTATACAACTTATAATACATCTGAAAATATAAA [XGTACX_negctrl_site36]”, the “gcPBM binding intensity (ln)” value is 7.7 ± 0.2.

As for “TTGTCTGACTAATTTTTTTCTGTTTGTACGTTCTTA [GTGCAC_negctrl_site602]”, the “gcPBM binding intensity (ln)” value was found to be 7.87 ± 0.6.

For the sequence “ACAAAATAAATATGAACACACACATTTATGCCTTTA [CACACA_site8346]”, the “gcPBM binding intensity (ln)” value worked out at 7.55 ± 0.71.

In the case of “ATAATTATACATATTACACACTCTCTTGATCTTTTT [CACACA_site3853]”, the “gcPBM binding intensity (ln)” value came to 7.92 ± 0.64.

For “CATATATAAAAAAACACACACATATTTATATTTATA [CACACA_site6682]”, the “gcPBM binding intensity (ln)” value was 7.57 ± 0.34.

In the case of “AAAAAAATTTATAAATATTTTATTAATATATTTACC [GTGCAC_negctrl_site690]”, the “gcPBM binding intensity (ln)” value came to 7.61 ± 0.42.

For “CATATTTCTTACATTTGTACTTAATAAAATTAATCA [XGTACX_site7224]”, the “gcPBM binding intensity (ln)” value came out at 7.92 ± 0.28.

“ACACAAAACAAAAAGGTGCTGTATAAATGGGTGTAT [GTGCAC_site9905]”: the “gcPBM binding intensity (ln)” value worked out at 10.3 ± 0.028.

In the case of “AAAATTAATAAATAAACACACATATTTATATTTATA [CACACA_site7266]”, the “gcPBM binding intensity (ln)” value stood at 7.3 ± 0.56.

In the case of “TATAAATATAGACACACACACACACCGAAGCGTAGC [CACACA_site6180]”, the “gcPBM binding intensity (ln)” value worked out at 7.79 ± 0.64.

Consider “TCGTCACTTTAATATTGTACATATATATATATATAT [XGTACX_site8046]”, for which the “gcPBM binding intensity (ln)” value was 9.19 ± 0.45.

In the case of “GATATATATATTCACACACACATGGAAATATATATA [CACACA_site382]”, the “gcPBM binding intensity (ln)” value worked out at 7.97 ± 0.7.

As for “ATATATATATGTGCCAGTACACATGTATACATTATA [XGTACX_site3899]”, the “gcPBM binding intensity (ln)” value stood at 9.03 ± 0.11.

Take “AATAATTATTTGTATAGTACAATATACAAAAGATGA [XGTACX_site4312]”: the “gcPBM binding intensity (ln)” value came out at 7.76 ± 0.46.

As for “AAAATTTAAAAATGGACACACACAAAAAATAATACT [CACACA_site7972]”, the “gcPBM binding intensity (ln)” value is 8.19 ± 0.76.

For the sequence “AACTTTTTACAAACAGGTACGCATATATATATATAT [XGTACX_site5081]”, the “gcPBM binding intensity (ln)” value was 9.29 ± 0.32.

For “CATCCATTATTAATATGTACATATGTATATATATTA [XGTACX_site1318]”, the “gcPBM binding intensity (ln)” value came out at 7.75 ± 0.38.

For the sequence “CACATACACATACAAACACACATTATATATATATAT [CACACA_site8460]”, the “gcPBM binding intensity (ln)” value was determined as 9.42 ± 0.52.

Regarding “TTTTTTTTTTTTTTTTTTTTTTTCTTTATTTTTTTT [CACACA_negctrl_site703]”, the “gcPBM binding intensity (ln)” value came to 8.11 ± 0.85.
